Measured values published in PubChem BioAssay AID504832 (National Center for Advancing Translational Sciences (NCATS), 2011).
The whole screen tested about 310,000 compounds, of which about 18,000 (5.8%) were called active. Inconclusive means that the source gave no clear call. Such entries were picked first, then a sample of the others. The call rests on the fitted dose curve; in most records, active means well fitted inhibition curve with a large enough effect; inconclusive means small, poorly fitted or top-dose-only effect, or another doubt; inactive means no such curve, though single readings can be large or run the other way. No potency is given beside an inconclusive call; the fits are too rough.

Assay: Primary qHTS for delayed death inhibitors of the malarial parasite plastid, 48 hour incubation
Conditions: P. falciparum luciferase growth in erythrocytes; series mostly up to 28.7 µM
Method in brief: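 Luminescence readout; reporter = integrated firefly luciferase in P. falciparum. RBC culture at 2% hematocrit, 0.1% parasitemia final, 37 C/5% CO2; decreased signal taken as growth inhibition.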
Potency means the concentration at half of the fitted maximal effect; tags describe the fitted curve by direction and shape.

Row | SMILES | Potency
1 | N#Cc1nc(-c2ccco2)oc1N1CCN(Cc2ccccc2)CC1 | inconclusive [inhibitor, full curve, poor fit]
2 | CCOC(=O)NC(=O)CSc1cc(C)c2cc(C)cc(C)c2n1 | inconclusive [inhibitor, partial curve, poor fit]
3 | COc1ccc(/C=C(/NC(=O)c2ccc(C)cc2)c2nc3ccccc3[nH]2)cc1OC | inconclusive [inhibitor, single point]
4 | Cc1ccc2nc3c(c(C(=O)O)c2c1)CCC3 | inconclusive [inhibitor, partial curve, poor fit]
5 | CCOC(=O)C1CCCN(C(=O)c2cc3cc(F)ccc3[nH]2)C1 (stereo not given) | inconclusive [inhibitor, single point]
6 | O=c1oc(-c2ccccc2F)nc2scc(-c3ccccc3)c12 | inactive
7 | CCOc1ccc(-n2cc(C(=O)Nc3cccc(OC)c3)c3cc(OC)c(OC)cc3c2=O)cc1 | inconclusive [inhibitor, single point]
8 | CC1=CC(C)(C)Nc2ccc(OC(=O)CN3C(=O)c4cccc5cccc(c45)C3=O)cc21 | active: 7.38 µM
9 | C=CCc1cccc2cc(C(=O)N3CCN(C(=O)c4ccccc4)CC3)c(=O)oc12 | inconclusive [inhibitor, partial curve, poor fit]
10 | N#Cc1ccc(CN2CCN(C(=O)CCNS(=O)(=O)c3ccc(F)c(F)c3)CC2)cc1 | inconclusive [inhibitor, single point]
11 | CCCCC/C(=N/O)c1c(C)[nH]c2ccccc12 | inconclusive [inhibitor, partial curve]
12 | COc1ccc(Oc2coc3cc(OCC(=O)N4CCCCC4)ccc3c2=O)cc1 | inconclusive [inhibitor, single point]
13 | O=C(NCc1ccncc1)C(=O)Nc1nc2ccccc2s1 | inactive
14 | O=C(OCC(=O)N1CCN(c2ccccc2)CC1)c1ccc(O)cc1O | inconclusive [inhibitor, single point]
15 | Cn1nc(-c2ccc(OCC(=O)Nc3cccnc3)cc2)c2ccccc2c1=O | inconclusive [inhibitor, partial curve, poor fit]
16 | COc1ccc(C(=O)C[n+]2ccc3ccccc3c2C)cc1 | inconclusive [inhibitor, single point]
17 | O=C(c1ccc(F)cc1)N1CCN(c2ccc([N+](=O)[O-])c(N3CCCCC3)c2)CC1 | inactive
18 | O=C(NC1CCCCC1)C(c1cccnc1)N(C(=O)CCl)c1cccc(Cl)c1 (stereo not given) | inconclusive [inhibitor, partial curve, poor fit]
19 | CN(C(=O)COC(=O)C1COc2ccccc2O1)c1c(N)n(Cc2ccccc2)c(=O)[nH]c1=O (stereo not given) | inconclusive [inhibitor, single point]
20 | O=C(CNC(=O)C(c1ccccc1)c1ccccc1)N/N=C/c1cccnc1 | inconclusive [inhibitor, full curve]

Row | SMILES | Potency
21 | Cc1oc(-c2ccccc2F)nc1CS(=O)(=O)CC(=O)NCCCN1CCc2ccccc2C1 | inconclusive [inhibitor, partial curve, poor fit]
22 | COc1ccc(NCC(=O)Nc2ccc(Br)cc2F)c(OC)c1 | inconclusive [inhibitor, single point]
23 | COc1ccc(NC(=O)C2C3C=CC4(O3)C2C(=O)N(CCN2CCCCC2)C4C(=O)NC2CCCC(C)C2C)cc1 (stereo not given) | inconclusive [inhibitor, single point]
24 | O=C(Nc1ccc(Cl)cn1)c1ccc(Br)c(S(=O)(=O)N2CCCCC2)c1 | inconclusive [inhibitor, single point]
25 | CC(C)Nc1nnc(SC(C)C(=O)Nc2ccc(Cl)cn2)s1 (stereo not given) | inactive
26 | CCN1C(=O)[C@@H]2[C@@H](c3ccc(-c4ccc(OC)cc4)cc3)N3CCCC[C@@]3(C(=O)OC)[C@@H]2C1=O | active: 10.4 µM
27 | CCN(CC)S(=O)(=O)c1ccc(N/N=C/c2cccnc2)nc1 | inconclusive [inhibitor, partial curve, poor fit]
28 | CC1(NC(=O)Cc2ccc(S(=O)(=O)N3CCOCC3)s2)CCS(=O)(=O)C1 (stereo not given) | inconclusive [inhibitor, single point]
29 | Cc1ccc(Nc2cc(=O)n(C3CCCCC3)c(=O)[nH]2)cc1C | inconclusive [inhibitor, full curve, poor fit]
30 | COc1cccc(-c2nc3n(n2)C(c2ccc4c(c2)OCO4)C(C(N)=O)=C(C)N3)c1 (stereo not given) | inconclusive [inhibitor, single point]
31 | Cn1ncc2c(NNC(=O)c3ccc(Cl)cc3Cl)ncnc21 | inactive
32 | Cc1cc(O)c(NC(=S)NC(=O)c2ccc(-c3ccc(Cl)cc3)o2)cc1C | inconclusive [inhibitor, single point]
33 | CC1CC(NNC(=O)c2ccccc2)=Nc2ccccc2N1C (stereo not given) | inconclusive [inhibitor, single point]
34 | CN=c1sc2ccccc2n1CC(O)COc1ccccc1 (stereo not given) | inconclusive [inhibitor, single point]
35 | C#CCSc1nsc(SCC#C)c1C#N | inconclusive [inhibitor, single point]
36 | COc1ccc(CNC(=O)C(C)Sc2nc3ccccc3c(=O)n2CCCN2CCOCC2)cc1 (stereo not given) | inconclusive [inhibitor, partial curve, poor fit]
37 | CCOc1ccccc1NC(=O)COc1ccc2ccc(=O)oc2c1 | inactive
38 | O=C(NNC(=O)c1ccccc1OCc1ccccc1)c1ccccc1O | inconclusive [inhibitor, single point]
39 | CC(C)c1nc2sc3c(NCc4ccco4)ncnc3c2c2c1COC(C)(C)C2 | inconclusive [inhibitor, full curve]
40 | COc1ccc(-c2oc(=O)c3cc(OC)c(OC)cc3c2/C=C/c2ccc(F)cc2)cc1 | inconclusive [inhibitor, single point]
